In the RNAGym collection of RNA variant scans (doi:10.1073/pnas.2313332121):
Variants at the floor of the assay are shown more often than the library holds them.

B1: TPR 5TU (parent)
chain: GGAUCUUCUCGAUCUAACAAAAAAGACAAAUCUGCCACAAAGCUUGAGAGCAUCUUCGGAUGCAGAGGCGGCAGCCUUCGGUGGCGCGAUAGCGCCAACGUUCUCAACUAUGACACGCAAAACGCGUGCUCCGUUGAAUGGAGUUUAUCAUG

Variants of: B1
Experiment: polymerase ribozyme fitness, log enrichment relative to wild type (log ratio); higher = more active; in vitro selection for triplet polymerase activity
In short: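 Genotype fitness is the logarithm of its enrichment divided by wild-type enrichment, using inverse-variance-weighted averages of replicates. That logarithm is base 2. Enrichment was measured by Illumina sequencing of input and output libraries from one triplicate in vitro selection round, with frozen incubation at −7 °C, on PCR-built, transcribed mutant libraries of each subunit of a heterodimeric triplet polymerase ribozyme, retaining genotypes with ≥10 input reads and ≥1 read per output.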

Variant	polymerase ribozyme fitness (log ratio)
C18G A52C G59U A60G G88C C99A C105U U109G A147U	≤ -4.2
C18G A52U U82A	-3.02
C18G A66U C85U U145C	≤ -4.2
C18G A91C C118A	≤ -4.2
C18G C27G C69G C72G G86A U104G C116G A120G	≤ -4.2
C18G C27U A37C A106U	≤ -4.2
C18G C27U C76A G80U U139A	≤ -4.2
C18G C27U G34A G42U A60G U104C A121U U145G	≤ -4.2
C18G C32G A41C C43U U44A G86A C93G U104A	≤ -4.2
C18G C32G U44G G58C C76A C93A G141C	≤ -4.2
C18G C32G U55A A60U G83C A137C U144C	≤ -4.2
C18G C36A C95A C96A	≤ -4.2
C18G C36A C96U A138U	-4.03
C18G C38U A73C G100A C103G	≤ -4.2
C18G C38U A107C	≤ -4.2
C18G C38U C51U U109C C132A	≤ -4.2
C18G C51U C87G C99A U101C C118U G136A	≤ -4.2
C18G C57A G74A C93U C105G	≤ -4.2
C18G C57G G80U C87A U127C G128C	≤ -4.2
C18G C57U G71A G84A A107C A122G G141C	≤ -4.2
C18G C79G G81C U90G G141A	≤ -4.2

Variant	polymerase ribozyme fitness (log ratio)
C18G C87G	≤ -4.2
C18G C96G C99G C105A	≤ -4.2
C18G C96U	-1.12
C18G G25U A41C G94U C99U C125A	≤ -4.2
C18G G25U A52C C87A	≤ -4.2
C18G G42A G84C A97U A122U A138U	≤ -4.2
C18G G48A C75U C85G A113C	≤ -4.2
C18G G50A C96G A121C	-2.18
C18G G59U G84U	-2.51
C18G G71A G83U U144A	≤ -4.2
C18G G84U G117U A121G	-2.06
C18G G86A C87A A91C A120C	≤ -4.2
C18G G88U U102A A121C	≤ -4.2
C18G G92C C129U A150U	-3.54
C18G U31A A41C U82A U144A U151A	≤ -4.2
C18G U31C A40G G92C A107C	≤ -4.2
C18G U31C C69G A91G	≤ -4.2
C18G U31C G42U U56A G71U C95G	≤ -4.2
C18G U31G A52G G80C U101C U127G	≤ -4.2
C18G U31G C32U U77G G81C G152A	≤ -4.2
C18G U33G C72U G80C C87G C108G G128U U135G	≤ -4.2

Variant	polymerase ribozyme fitness (log ratio)
C18G U45A G50C U53G C57U G86U A97G A110U	≤ -4.2
C18G U55A	-0.923
C18G U78G A107C U109A	≤ -4.2
C18G U78G U82G C85U A89U A91U C131A	≤ -4.2
C18G U101C A107G	≤ -4.2
C18U A19C A21G G80C A107U G152U	≤ -4.2
C18U A19C U53G C93G	≤ -4.2
C18U A19U A26G A91U U104G	≤ -4.2
C18U A20C A37U G59U G62U G83C C87U C103A C116U G136U	≤ -4.2
C18U A20C G34U C76A C79A G88A	≤ -4.2
C18U A20G C87G U102G	≤ -4.2
C18U A20U A28C G50C G88U C96A G124U C125U U148A	≤ -4.2
C18U A20U C36U C54U G62A G84A C85U U144C	≤ -4.2
C18U A20U U53A C118G U148A	≤ -4.2
C18U A21G A22C A29G G46A A60G U111G G136A G141U	≤ -4.2
C18U A22C A49G U61A C131A G141U A150C	≤ -4.2
C18U A23G A137C	≤ -4.2
C18U A23U C36A C87A U139C	≤ -4.2
C18U A23U U31G A41C C85G C93G C96A A122G G140A	≤ -4.2
C18U A24G U53G C85U G126A G128U U146A	≤ -4.2
C18U A24U A29C C32U C87U U135G	≤ -4.2

Variant	polymerase ribozyme fitness (log ratio)
C18U A24U C27A G59A U90A C123A U127A A150G	≤ -4.2
C18U A24U C27G U31C C36G	≤ -4.2
C18U A26U U44C A49U G50C C75G C93U C103A A147U	≤ -4.2
C18U A28G C51G G70C A91C	≤ -4.2
C18U A28U C38A A47C C85A U145C	≤ -4.2
C18U A29U G58C G59A A89G C95G	≤ -4.2
C18U A30C C76G C93U	≤ -4.2
C18U A30G G48A A73G C87G G128C	≤ -4.2
C18U A30G U44A G68U G86U C95G G143U	≤ -4.2
C18U A30G U44A G68U G86U C95G U101C C149U	≤ -4.2
C18U A30U A89U C93G C131A G140U U145A	≤ -4.2
C18U A30U C32A C63U G83U C93A G143A	≤ -4.2
C18U A30U U55G C69U U78C G88C U134C G136U	≤ -4.2
C18U A37C A47U A49G U61G C95A G136U	≤ -4.2
C18U A37C C75U G88U C99U	≤ -4.2
C18U A37C C105G A106G C108U A115G	≤ -4.2
C18U A39C U61A C87A A121U	≤ -4.2
C18U A39U G48C C51U A52C U55A A66C C85G C116U A120U G141C	≤ -4.2
C18U A40G	-2.32
C18U A40U U53G C75G C118A	≤ -4.2
C18U A41G G42A A47U U55A U61G U130A A138U G141A	≤ -4.2
